The full ranking holds about 13,000 compounds; the median of “IFI” is about 4, and the highest 2% start at about 17. Some of the results follow.

This assay is described as follows: GSK_TCMDC: Inhibition Frequency Index (IFI). The number of non-kinase HTS assays where a compound showed > 50 % inhibition, expressed as a percentage of the number of such assays in which the compound was tested (-0 is zero). The format is functional.
The compound `N#Cc1ccc2c(c1)CCN(CCC1CCC(NC(=O)/C=C/c3ccc4ccccc4c3)CC1)CC2` (centres undefined) yielded an IFI of 1.4%.

As for `Cc1ccccc1N1CCN(c2ccc(C(=O)NC3CC3)cn2)CC1`, the IFI amounted to 5.88%.

`COc1ccccc1Nc1nc(C)cc(NCc2ccc(-n3ccnc3)cc2)n1`: the IFI is 4.69%.

For the compound `COc1cc(C=C(C2=NC(=O)CS2)c2nc3cccnc3n2C)ccc1O`, the IFI was determined as 2.78%. The result for `CC(C)N(Cc1cnc2nc(N)nc(N)c2n1)c1ccc(Cl)c(Cl)c1` reads 1.49%; that for `O=C(Nc1ccc2c(c1)CCC2)c1cnc(N2CCN(c3ccncc3)CC2)c(Cl)c1`, 14.3%; that for `CCOC(=O)c1ccc(NC(=O)Nc2cccc(-c3ccc(-c4nc5cccc(C)c5[nH]4)s3)c2)cc1`, 2.02%. With `O=C(NC1CCCC1)c1cc2c(=O)n3ccccc3nc2[nH]/c1=N/CCc1ccccc1` the figure was 2.56%; with `CCCC(=O)c1cnc2cc(O)ccc2c1Nc1ccccc1C`, 2.78%.

For the compound `CCC(C)c1ccc(-n2c(Nc3ccccc3)nc3cc(S(N)(=O)=O)ccc32)cc1` (centres undefined), the IFI turned out to be 1.53%. With `CCC(C)(C)c1ccc(OCC(O)CN2CCCCC2)c(C(C)(C)CC)c1` (centres undefined) the figure was 7.41%; with `CC1(C)CCNc2cc(NC(=O)c3ccc(-c4ncccc4C(F)(F)F)cc3)ccc21`, 12.7%; with `O=C(c1cc(-c2ccco2)n[nH]1)N1CCN(S(=O)(=O)c2ccc(Cl)cc2)CC1`, 6.98%. For `Nc1cc(-c2cccc(Cl)c2)nn1-c1ccnc2cc(Cl)ccc12`, the IFI was 0%. As for `Cc1c(C)c2c(c(C)c1O)CC[C@@](C)(C(=O)N1CCC(CCN3CCC(c4c[nH]c5ccccc45)CC3)CC1)O2`, the IFI came to 5.19%.

For the compound `O=C(Cc1c[nH]cn1)Nc1cccc(-c2ccc(-c3nc4cc(F)ccc4[nH]3)cc2)c1`, the IFI amounted to 3.7%. With `CN1CCC(Oc2cc(NC(=O)Nc3ccc(-c4ccncc4)c(Cl)c3)ccc2Cl)CC1` the figure was 7.58%; with `COc1cc(-c2ccccc2)ccc1C(=O)Nc1ccc2c(c1)N(C)CCC2`, 4.9%. The result for `CC(=O)Nc1ccc(CN(Cc2cccc(OC(C)(C)C)c2)Cc2ccc3c(c2)OCCO3)cc1` reads 3.13%; that for `COc1c(Br)cc(Br)cc1-c1ccc(CN2CC3CCC2CC3)[nH]1`, 21.1%. Compound `Cc1cccc(NC(=O)NC2CCN(CCCCCNC(=O)/C=C/c3ccc(Cl)c(Cl)c3)CC2)c1` came in with an IFI of 4.67%. With `CCOc1cc2ncnc(Nc3ccc(OCc4c(F)cccc4F)c(OC)c3)c2cc1OCC` the figure was 0%; with `Cc1[nH]c(C)c(-c2ccc(Oc3cccc(Cl)c3)cc2)c(=O)c1Cl`, 12.8%. With `CCOc1cc(CC)ccc1C1CCN(CCN2CCC(CNC(=O)c3ccc(-c4ccc(C#N)cc4)cc3)CC2)CC1` the figure was 10.1%. With `CCCC(C)Nc1nc(C)cc(N[C@@H](CC(C)C)C(=O)NCCOc2ccccc2)n1` (some centres undefined) the figure was 4.65%; with `CC(C)(C)Oc1ccc(C[C@@H]2NC3(C(=O)N(Cc4ccc(Cl)c(Cl)c4)c4ccccc43)C3C(=O)N(c4ccc(Br)cc4)C(=O)C32)cc1` (some centres undefined), 0%; with `COc1cccc(-c2cnc(N)c(-c3nc4ccc(F)cc4[nH]3)c2)c1`, 9.17%.

`COc1ccccc1CCNC(=O)c1cnc(N2CCN(c3ccncc3)CC2)c(Cl)c1` had an IFI of 10.4%. For the compound `O=C(/C=C/c1cccc(C(F)(F)F)c1)NCCCCCN1CCN(C(=O)Nc2ccc(Cl)c(Cl)c2)CC1`, the IFI was 6.16%. With `CN(C)C(=O)n1cnc(S(=O)(=O)N(C)c2ccc(Cl)cc2)n1` the figure was 3.57%; with `CCc1cc2c3c(N)nc(N)nc3ccc2n1C(CC)CC`, 7.63%; with `Cc1ccc(NC(=O)c2ccc(Cl)c(Cl)c2)cc1-c1ccc(C(=O)Nc2ccncc2)cc1`, 8.82%.

The compound `Clc1ccc(-c2nc3cc(-c4ccc5nc(-c6ccc(Cl)cc6)[nH]c5c4)ccc3[nH]2)cc1` displayed an IFI of 2.22%. With `CCN(CC)CCCC(C)Nc1ccnc2ccc(OC)cc12` (centres undefined) the figure was 0.73%; with `COc1ccc(NC(=O)c2ccc(-c3cc(NC(=O)c4ccnc(N5CCCC5)c4)ccc3C)s2)cc1N1CCN(C)CC1`, 5.79%. With `CCOc1cc(C(=O)Nc2ccc3nc(N4CCCCC4)cc(C)c3c2)cc(OCC)c1OCC` the figure was 3.23%; with `CO/C(=C\C=C\c1cc2cc(Cl)c(Cl)cc2[nH]1)C(=O)NCCCN1CCN(c2cccc(OCC(=O)Nc3cccc(C(=O)c4ccccc4)c3)c2)CC1`, 6.15%; with `c1nc2nc3c(c(Nc4ccc5c(c4)CCC5)n2n1)CCC3`, 0.74%. The result for `CC(C)Nc1cc(C(=O)N[C@@H](Cc2ccccc2)[C@H](O)CNCc2cccc(C(F)(F)F)c2)c(F)c(N2CCCCS2(=O)=O)c1` reads 5.22%; that for `COc1ccc(-c2ccc(NC(=O)c3ccc(Cl)cc3)cc2)cc1CN(C)CCO`, 4.95%; that for `CS(=O)(=O)c1ccccc1CNC(=O)c1ccc(-c2cccc(-c3nc4cc(C(F)(F)F)ccc4[nH]3)c2)cc1`, 3.81%. `Cc1ccc(C(=O)Nc2ccc(OC3CCN(CCC(C)C)C3)c(Cl)c2)cc1` (centres undefined): the IFI worked out at 10.8%.

Compound `COc1ccc(NC(=O)c2ccc(Br)c(C)c2)cc1N1CCN(CCCCc2ccccc2)CC1` registered an IFI of 6.3%. With `COc1ccc2ncc(F)c(CCN3CC[C@H](NCc4cc(C#N)c5c(c4)OCCO5)[C@H](O)C3)c2c1` the figure was 3.74%; with `COCCn1c(Sc2ncnc3sccc23)nc2ccccc21`, 0%; with `COCCCN=C(S)NN=C(C)c1ccccn1`, 4.29%.

Turning to `N#Cc1ccc2c(c1)CCN(CCC1CCC(NC(=O)/C=C/c3nc4ccccc4s3)CC1)CC2` (centres undefined), the IFI was 0%. With `CC(C)(C)c1cc(C(=O)N2CCN(c3ccc(C(F)(F)F)cn3)CC2)n(Cc2ccc(F)cc2)n1` the figure was 1.99%; with `CC(=O)Nc1cc(C(=O)Nc2cccc(-c3csc(-c4nc5ccccc5[nH]4)c3)c2)ccc1C`, 3.64%. With `CC(Sc1nc2sccc2c(=O)n1C)C(=O)Nc1ccc2c(c1)OCO2` (centres undefined) the figure was -0%. The result for `O=c1nc(NCCCCCN2CCC(c3c[nH]c4ccccc34)CC2)[nH]cc1Cc1ccc(Cl)c(Cl)c1` reads 5.04%; that for `COC1CCC(C(=O)Nc2ccc(-c3cccc(-c4nc5cc(C(F)(F)F)ccc5[nH]4)c3)cc2)CC1` (centres undefined), 6.25%; that for `CC(=NNC(S)=NCc1ccco1)c1ccccn1`, 9.17%. On to `CC(C)Cn1c(Sc2ccc(C#N)c([N+](=O)[O-])c2)nnc1-c1ccc(N(C)C)cc1`, for which the IFI was determined as 2.86%. With `CCCCCCCCNc1c2ccc(Cl)cc2nc2ccc(OC)cc12` the figure was 3.7%; with `CCNc1cc(C(=O)N[C@@H](Cc2ccccc2)[C@H](O)CNCCCc2ccc(OC)cc2)cc(N2CCCC2=O)c1`, 2.9%; with `COc1ccc(CNc2ccc3nc(N)nc(N)c3c2)cc1`, 3.85%. In the case of `CC(C)C[C@H](NC(=O)c1cc2ccccc2s1)C(=O)N[C@H]1CCN(Cc2ccc(OCCCN(C)C)c(Cl)c2)C1`, the IFI turned out to be 17.2%. With `O=C(NCc1ccc(C(=O)NC2CCCCCC2)cc1)c1ccc(O)c(-c2ccc(Cl)c(Cl)c2)c1` the figure was 0.74%; with `Cc1noc(C)c1-c1ccc2c(Nc3nccc4ccccc34)c(C(N)=O)cnc2c1`, 16.2%; with `COc1ccc(N2CCN(CCCCNC(=O)c3ccc(NC(=O)c4cc(C(F)(F)F)cc(C(F)(F)F)c4)cc3)CC2)c(OC)c1`, 3.54%.

With `CCc1sc(N2CCN(C)CC2)nc1C(=O)Nc1ccc(F)cc1C(F)(F)F`, the IFI was determined as 3.85%. With `O=C(NCCN1CCCc2ccccc21)C1CCN(c2nc(-c3ccc(Cl)cc3)no2)CC1` the figure was 3.03%; with `O=c1[nH]c2c(cc1CNC1CCCCC1)c(-c1cccc(F)c1)nn2-c1ccccc1`, 6.41%; with `COc1ccc(NC(=O)N2CCN(CCCCCNC(=O)/C=C/c3ccc(C(F)(F)F)cc3)CC2)cc1Cl`, 7.92%. With `CC(CN1CCN(C)CC1)C(=O)Nc1ccc(-c2ccc(-c3nc4cc(C(F)(F)F)ccc4[nH]3)cc2)cc1` (centres undefined) the figure was 6.36%; with `C=CCn1c(Sc2ccc(C#N)c([N+](=O)[O-])c2)nnc1-c1ccc(Cl)cc1`, 4.23%. The result for `O=C(Nc1cc2cc(-c3ccc(CN4CCCCC4)cc3)ccc2n2cnnc12)NC1CCCC1` reads 16.2%; that for `CC(C)(CN)c1cc(-c2ccc(Cl)c(O)c2)c(-c2ccncc2)o1`, 3.57%; that for `O=C(/C=C/c1ccc(Cl)c(Cl)c1)NCCCCCN1CCC(NC(=O)NC2CCCC2)CC1`, 0.66%.

With `FC(F)(F)c1cccc(CCNc2nccc(NCc3ccc(Cl)cc3Cl)n2)c1`, the IFI came to 25%. With `O=c1cc(NCCCNCc2cc3c(Cl)cccc3s2)[nH]c2ccccc12` the figure was 5.22%; with `COc1ccc2nccc(N3C[C@H]4C[C@@H]3CN4CCNCc3ccc4c(n3)NC(=O)CS4)c2n1`, 3.03%. The result for `Cc1[nH]c(C)c(-c2ccc(OCc3cc(F)cc(F)c3)nc2)c(=O)c1Br` reads 7.89%; that for `Cc1ccc(N2CCc3c(-c4cc5cccnc5nc4C)cc(C)nc32)c(Cl)c1`, 7.69%; that for `COc1ccc(OC)c(-c2ccc(=O)n(CC(=O)Nc3cccc4ccccc34)n2)c1`, 1.52%. The result for `O=C(CCNc1ccnc(NCCc2ccccc2)n1)Nc1ccccc1` reads 15.8%; that for `Cc1cccc(CNc2ncc(C)c(NCCC(=O)Nc3ccccc3)n2)c1`, 0%; that for `c1cc(CNC2Cc3ccc(-c4cccs4)cc3C2)cc(-n2ccnc2)c1` (centres undefined), 7.69%. Compound `CCOc1ccc2[nH]c(C)cc(=NN=Cc3cccc(F)c3)c2c1` gave an IFI of 0.76%.

The compound `COc1ccc(-c2cccc(NC(=O)c3cccc(C#N)c3)c2)cc1CNC(C)C` came in with an IFI of 1.98%. The result for `CC1(C)NC(N)=NC(=N)N1OCCCc1c(Cl)cccc1Cl` reads 7.46%; that for `COC(=O)c1ccc(NC(=O)c2ccc(CCN3CCC(c4nc(COCC(F)(F)F)c(-c5ccc(F)cc5)o4)CC3)cc2)cc1`, -0%.

As to `O=C(NOCCCCOc1ccc(Cl)c(Cl)c1)c1ccccc1`, the IFI turned out to be 2.82%. With `Cc1ccn2c(N(Cc3ccccc3)C(=O)c3ccc(Cl)c(Cl)c3)c(-c3ccccc3)nc2c1`, the IFI was 8.05%. Compound `Cc1cccc2nc(-c3ccc(-c4cccc(NC(=O)NCc5cccc(F)c5)c4)s3)[nH]c12` had an IFI of 2.02%.

Take `CC(=O)Nc1ncc(C(=O)Nc2cccc(-c3cccc(-c4nc5cccc(C)c5[nH]4)c3)c2)s1`: the IFI worked out at 2.78%. With `Cc1ccc(-c2cncc(-c3cc(NC4CCN(Cc5ccccc5)CC4)nc(-c4ccccc4)n3)c2)cc1` the figure was 4.35%. With `Cc1ccc(C(=O)Nc2cc(C(F)(F)F)cc(C(F)(F)F)c2)cc1[N+](=O)[O-]` the figure was 0%.

Values taken from ChEMBL document CHEMBL1157539, “Thousands of chemical starting points for antimalarial lead identification” (Nature, 2010).
